According to ChEMBL document CHEMBL4888484, “Replenishing the malaria drug discovery pipeline: Screening and hit evaluation of the MMV Hit Generation Library 1 (HGL1) against asexual blood stage Plasmodium falciparum ,using a nano luciferase reporter read-out” (2022):
Out of some 150,000 compounds screened, about 540 (0.36%) showed an effect of 50% or more. Some of the results follow.

What follows are molecules tested on Plasmodium falciparum (assay: Primary screen in NF54 nanoGlo assay, in single point, at 2uM, 72h; a lower Z score goes with more inhibition). Conditions: timepoint 72 hour.
Format: functional, Erythrocyte
`CCC(C)(C)c1ccc(OCCN(C)C)cc1` was tested, and the “% Inhibition” value was 1% and the Z score was -0.18. With `CCCc1cc(CNC2CCN(C(=O)c3cccs3)CC2)on1` the “% Inhibition” value was -6% and the Z score was 1.06. `COCCn1cncc1CNc1cc([C@H]2CCOC2)ncn1` was tested, and the “% Inhibition” value was -4% and the Z score was 0.82. In the case of `CCc1noc(Cc2c(C)nn(-c3ccccc3)c2C)n1`, the “% Inhibition” value is reported as -5% and the Z score is reported as 0.89. For `CNc1snc(C)c1C(=O)OCC(=O)N1CCCCCCC1`, the “% Inhibition” value was -8% and the Z score was 1.1. With `CN(C)C(=O)c1ccc(F)cc1Br` the “% Inhibition” value was -2% and the Z score was 0.29. `CCC(NC[C@H](O)CC)c1c(C)noc1C` (stereo partly drawn) was tested, and the “% Inhibition” value was -11% and the Z score was 1.37. With `CCN(CC)c1nc2c(c(O)nc(=O)n2C)n1CCC(C)C` the “% Inhibition” value was -7% and the Z score was 0.89. With `O=C(NCCN1Cc2ccccc2O[C@H](c2ccccc2)C1)c1cnsn1` the “% Inhibition” value was 17% and the Z score was -2.18. With `COc1ccc([C@H]2[C@H](C(=O)NCC3CC3)CCC(=O)N2C)cc1` the “% Inhibition” value was 31% and the Z score was -3.53. With `COc1ccc(CN(C(=O)OC(C)(C)C)C2CCC(C(=O)N3CCO[C@@H](COc4ccccc4)C3)CC2)cc1C` (stereo partly drawn) the “% Inhibition” value was -2% and the Z score was 0.25. In the case of `CC[C@@H](C(=O)Nc1c(C)nc(N2CCCC2)nc1C)c1ccccc1`, the “% Inhibition” value is reported as 3% and the Z score is reported as -0.45. `Cc1cccc(-c2nnc3c4ccccc4nc(N4CCN(C(=O)c5ccc(F)cc5F)CC4)n23)c1` was tested, and the “% Inhibition” value was -11% and the Z score was 1.38. `COc1ccccc1[C@@]1(CC(=O)N(C)Cc2ccccc2)CC(=O)N(C2CCCC2)C1=O` was tested, and the “% Inhibition” value was -1% and the Z score was 0.3. With `COc1ccc([C@@H](C)CN2CCC(n3cccn3)CC2)cc1` the “% Inhibition” value was -12% and the Z score was 1.35. `CC[C@H](N)C(=O)N(C)Cc1ccccc1F` was tested, and the “% Inhibition” value was -34% and the Z score was 3.98. In the case of `CN(CC1CCCCC1)C(=O)CN1CCOC(C)(C)C1`, the “% Inhibition” value is reported as 8% and the Z score is reported as -1.3. In the case of `COc1ccc([C@@H](O)CN2CCN(c3ncccn3)CC2)cc1`, the “% Inhibition” value is reported as -19% and the Z score is reported as 1.92. In the case of `O=C(COc1ccccc1)NC(c1ccc(F)cc1F)[C@H]1C[C@@H](O)C1` (stereo partly drawn), the “% Inhibition” value is reported as 1% and the Z score is reported as -0.26.
